Laboratory results taken from publication PMC12820563, “FoxP3 forms a head-to-head dimer in vivo and stabilizes its multimerization on adjacent microsatellites”.
The list shows a part of the results.

molecular target: T1, MBP-FoxP1dN (Mus musculus, UniProt P58462 326-579); assay: PD-seq (MBP pull-down with sequencing); 20 mM Tris-HCl pH 7.5, 100 mM NaCl, 1.5 mM MgCl2, 0.4 uM protein, 0.1 uM dsDNA library, 30 min, room temperature, amylose pull-down; high values mean tight binding; conditions: protein: recombinant; tags: His6-MBP; chain copies: 2; dsDNA, one strand shown
T1 sequence: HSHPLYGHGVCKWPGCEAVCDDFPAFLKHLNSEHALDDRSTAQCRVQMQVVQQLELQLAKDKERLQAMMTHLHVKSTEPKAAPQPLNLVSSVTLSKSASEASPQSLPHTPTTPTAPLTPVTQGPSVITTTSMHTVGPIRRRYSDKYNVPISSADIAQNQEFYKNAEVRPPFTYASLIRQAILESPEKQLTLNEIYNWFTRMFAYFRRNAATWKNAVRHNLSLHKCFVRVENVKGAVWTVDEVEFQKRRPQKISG
In short: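 Binding is the reads-per-million enrichment of pull-down relative to input, pooled across replicates. For this, 0.4 µM His6-MBP-tagged mouse FoxP3 or FoxP1 fragment lacking the N-terminus, made in E. coli, was incubated with 0.1 µM Klenow-filled double-stranded degenerate DNA library for 30 min at room temperature in Tris pH 7.5 buffer with NaCl and MgCl2. Complexes bound to amylose resin were washed three times before proteinase K released the DNA for PCR barcoding and Illumina sequencing.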

First: GATGATTGTTCTCCCAGCTGATGAATTAGATCTCTCGAGTAAACAAATTTTCCTAATCTTTCTGTTCAAGCGCCATCTAC
Second: GATGATTGTTCTCCCAGCTGATGAATTAACGGCTTCGAGTAAACAAATTTTCCTAATCTTTCTGTTCAAGCGCCATCTAC
The binding signal of the first is lower: 0.813 RPM ratio (pull-down/input) for the first, 0.892 RPM ratio (pull-down/input) for the second.

First: GATGATTGTTCTCCCAGCTGATGAATTCTACTCTTCGAGTAAACAAATTTTCCTAATCTTTCTGTTCAAGCGCCATCTAC
Second: GATGATTGTTCTCCCAGCTGATGAATTCTACTTCTCGAGTAAACAAATTTTCCTAATCTTTCTGTTCAAGCGCCATCTAC
The binding signal of the first is higher: 0.918 RPM ratio (pull-down/input) for the first, 0.814 RPM ratio (pull-down/input) for the second.

Going from “GATGATTGTTCTCCCAGCTGATGAATTCATAGACTCGAGTAAACAAATTTTCCTAATCTTTCTGTTCAAGCGCCATCTAC” to “GATGATTGTTCTCCCAGCTGATGAATTTCAGCACTCGAGTAAACAAATTTTCCTAATCTTTCTGTTCAAGCGCCATCTAC”, the binding signal rises from 0.762 RPM ratio (pull-down/input) to 0.8 RPM ratio (pull-down/input).

Compared with “GATGATTGTTCTCCCAGCTGATGAATTAGCTTTTTCGAGTAAACAAATTTTCCTAATCTTTCTGTTCAAGCGCCATCTAC”, “GATGATTGTTCTCCCAGCTGATGAATTGCTATGTTCGAGTAAACAAATTTTCCTAATCTTTCTGTTCAAGCGCCATCTAC” is higher in binding signal: 0.956 RPM ratio (pull-down/input) for the first, 1.24 RPM ratio (pull-down/input) for the second.

First: GATGATTGTTCTCCCAGCTGATGAATTTTCTTTATCGAGTAAACAAATTTTCCTAATCTTTCTGTTCAAGCGCCATCTAC
Second: GATGATTGTTCTCCCAGCTGATGAATTTCTCCTTTCGAGTAAACAAATTTTCCTAATCTTTCTGTTCAAGCGCCATCTAC
The binding signal of the first is higher: 1.2 RPM ratio (pull-down/input) for the first, 0.95 RPM ratio (pull-down/input) for the second.

Compared with “GATGATTGTTCTCCCAGCTGATGAATTGTGTTTTTCGAGTAAACAAATTTTCCTAATCTTTCTGTTCAAGCGCCATCTAC”, “GATGATTGTTCTCCCAGCTGATGAATTAAAAGGCTCGAGTAAACAAATTTTCCTAATCTTTCTGTTCAAGCGCCATCTAC” is lower in binding signal: 2.33 RPM ratio (pull-down/input) for the first, 0.898 RPM ratio (pull-down/input) for the second.

Compared with “GATGATTGTTCTCCCAGCTGATGAATTATTGTGGTCGAGTAAACAAATTTTCCTAATCTTTCTGTTCAAGCGCCATCTAC”, “GATGATTGTTCTCCCAGCTGATGAATTTACAGCTTCGAGTAAACAAATTTTCCTAATCTTTCTGTTCAAGCGCCATCTAC” is lower in binding signal: 1.51 RPM ratio (pull-down/input) for the first, 1.17 RPM ratio (pull-down/input) for the second.

Going from “GATGATTGTTCTCCCAGCTGATGAATTCCTATAGTCGAGTAAACAAATTTTCCTAATCTTTCTGTTCAAGCGCCATCTAC” to “GATGATTGTTCTCCCAGCTGATGAATTTCAGATCTCGAGTAAACAAATTTTCCTAATCTTTCTGTTCAAGCGCCATCTAC”, the binding signal falls from 0.82 RPM ratio (pull-down/input) to 0.814 RPM ratio (pull-down/input).

Going from “GATGATTGTTCTCCCAGCTGATGAATTGGTTTTGTCGAGTAAACAAATTTTCCTAATCTTTCTGTTCAAGCGCCATCTAC” to “GATGATTGTTCTCCCAGCTGATGAATTTGGGCTCTCGAGTAAACAAATTTTCCTAATCTTTCTGTTCAAGCGCCATCTAC”, the binding signal falls from 1.12 RPM ratio (pull-down/input) to 0.821 RPM ratio (pull-down/input).

Compared with “GATGATTGTTCTCCCAGCTGATGAATTTTCAAGGTCGAGTAAACAAATTTTCCTAATCTTTCTGTTCAAGCGCCATCTAC”, “GATGATTGTTCTCCCAGCTGATGAATTACTTGACTCGAGTAAACAAATTTTCCTAATCTTTCTGTTCAAGCGCCATCTAC” is higher in binding signal: 0.787 RPM ratio (pull-down/input) for the first, 0.999 RPM ratio (pull-down/input) for the second.

Compared with “GATGATTGTTCTCCCAGCTGATGAATTGCCAGTCTCGAGTAAACAAATTTTCCTAATCTTTCTGTTCAAGCGCCATCTAC”, “GATGATTGTTCTCCCAGCTGATGAATTGCTCGAATCGAGTAAACAAATTTTCCTAATCTTTCTGTTCAAGCGCCATCTAC” is higher in binding signal: 0.829 RPM ratio (pull-down/input) for the first, 1.02 RPM ratio (pull-down/input) for the second.

Going from “GATGATTGTTCTCCCAGCTGATGAATTAGCTAATTCGAGTAAACAAATTTTCCTAATCTTTCTGTTCAAGCGCCATCTAC” to “GATGATTGTTCTCCCAGCTGATGAATTCTCAAAATCGAGTAAACAAATTTTCCTAATCTTTCTGTTCAAGCGCCATCTAC”, the binding signal rises from 0.933 RPM ratio (pull-down/input) to 1.05 RPM ratio (pull-down/input).

Going from “GATGATTGTTCTCCCAGCTGATGAATTTAAGAACTCGAGTAAACAAATTTTCCTAATCTTTCTGTTCAAGCGCCATCTAC” to “GATGATTGTTCTCCCAGCTGATGAATTGTGCCATTCGAGTAAACAAATTTTCCTAATCTTTCTGTTCAAGCGCCATCTAC”, the binding signal rises from 0.845 RPM ratio (pull-down/input) to 1.11 RPM ratio (pull-down/input).

First: GATGATTGTTCTCCCAGCTGATGAATTAGCGTTGTCGAGTAAACAAATTTTCCTAATCTTTCTGTTCAAGCGCCATCTAC
Second: GATGATTGTTCTCCCAGCTGATGAATTTAGACCTTCGAGTAAACAAATTTTCCTAATCTTTCTGTTCAAGCGCCATCTAC
The binding signal of the first is higher: 1.06 RPM ratio (pull-down/input) for the first, 0.997 RPM ratio (pull-down/input) for the second.

First: GATGATTGTTCTCCCAGCTGATGAATTTGATGAATCGAGTAAACAAATTTTCCTAATCTTTCTGTTCAAGCGCCATCTAC
Second: GATGATTGTTCTCCCAGCTGATGAATTTACCCCCTCGAGTAAACAAATTTTCCTAATCTTTCTGTTCAAGCGCCATCTAC
The binding signal of the first is lower: 0.889 RPM ratio (pull-down/input) for the first, 1.05 RPM ratio (pull-down/input) for the second.

Compared with “GATGATTGTTCTCCCAGCTGATGAATTCCAGAAATCGAGTAAACAAATTTTCCTAATCTTTCTGTTCAAGCGCCATCTAC”, “GATGATTGTTCTCCCAGCTGATGAATTACCATATTCGAGTAAACAAATTTTCCTAATCTTTCTGTTCAAGCGCCATCTAC” is higher in binding signal: 0.987 RPM ratio (pull-down/input) for the first, 1.11 RPM ratio (pull-down/input) for the second.
